Data: PubChem BioAssay AID2546 (National Center for Advancing Translational Sciences (NCATS), 2010)
Out of some 310,000 compounds screened, about 11,000 (3.5%) were called active. The shares of active, inactive and inconclusive entries below differ from those in the screen. Calls follow the shape of the dose curve; as a rule, active = well fitted inhibition curve with a large enough effect; inconclusive = small, poorly fitted or top-dose-only effect, or effect the other way; inactive = flat fitted curve, though single readings scatter. Potencies of inconclusive entries are left out as doubtful fits.

Assay: VP16 counterscreen qHTS for inhibitors of ROR gamma transcriptional activity;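 also: Gal4-VP16 expression switched on by copper sulfate through the metallothionein promoter; nearly all actives have a fitted effect of over 50% in size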
Settings: Drosophila S2 Gal4-VP16 UAS-luciferase, luminescence, 20 h; series mostly up to 53.6 µM
Potency is read from the fitted curve at half-maximal effect; tags tell the direction and shape of the fitted curve.

Structure (SMILES) | Potency
O=c1c2c(nc3cc(-c4ccccc4Cl)[nH]n13)CCS2 | inconclusive [inhibitor, single point]
CC1=CC2=NC(=O)/C(=C\c3ccc(OC(=O)c4ccco4)cc3)C(=N)N2O1 | inactive
COc1ccccc1NC(=O)Nc1ccc2c(c1)nc(C)n2C | inconclusive [inhibitor, partial curve]
CCc1cc(-c2n[nH]c(C)c2-c2nc(C)cs2)c(O)cc1OC | inconclusive [inhibitor, single point]
CC(C)NC(=O)NC(=O)COC(=O)c1ccccc1O | inactive
Cc1csc(NC(=O)c2nc3nc(C)cc(C)n3n2)n1 | inconclusive [inhibitor, single point]
COc1cc(SC)ccc1C(=O)Nc1ccc2c(c1)OCCO2 | inconclusive [inhibitor, full curve, poor fit]
CC1(C)CCCN(C(=O)c2ccc3c(c2NCCO)C(=O)c2ccccc2C3=O)C1 | inconclusive [inhibitor, partial curve]
Cc1ccc(C(C[N+](=O)[O-])c2c(C)[nH]n(-c3ccccc3)c2=O)cc1 (stereo unspecified) | inconclusive [inhibitor, single point]
O=C(CSc1nnc(-c2ccc(Cl)cc2)o1)N1CCOCC1 | inconclusive [inhibitor, single point]
CCOc1ccc(NC(=S)N2CCC(C(O)(c3ccccc3)c3ccccc3)CC2)cc1 | inconclusive [inhibitor, single point]
CC(C)CC1=NN(C(=O)c2cccnc2)C(O)(C(F)(F)F)C1 (stereo unspecified) | active: 12.6 µM
O=C1C=C(Nc2ccc(O)cc2)C(=O)c2ccccc21 | inconclusive [inhibitor, single point]
Cc1ccc(C(=O)NC(=S)Nc2cccnc2Cl)cc1 | inconclusive [inhibitor, single point]
Cc1ccccc1OC(=O)C1C(c2ccccc2)C(C(=O)O)C1c1ccccc1 (stereo unspecified) | inactive
CCOc1ccc(NC(=O)Cc2ccc(NC3=NC4CS(=O)(=O)CC4S3)cc2)cc1 (stereo unspecified) | inconclusive [inhibitor, single point]
CCc1n[n+](CC(=O)c2ccccc2)c(N)s1 | active: 2.24 µM
Cc1c(Cl)cccc1NC(=S)N1CCCCCC1 | inconclusive [inhibitor, single point]
Cc1cccc(-n2c(O)c(C=NC3CCS(=O)(=O)C3)c3ccccc3c2=O)c1 (stereo unspecified) | inactive
CCOC(=O)c1c(NC(=O)/C=C/C(=O)O)sc(C)c1-c1ccc(C(C)(C)C)cc1 | inconclusive [inhibitor, single point]
Oc1ccc(NCc2cccc(OCc3ccc(F)cc3)c2)cc1 | inconclusive [inhibitor, single point]
O=C(/C=C/c1cccc([N+](=O)[O-])c1)c1ccc2c(c1)OCCO2 | inconclusive [inhibitor, single point]
Cc1ccc(S(=O)(=O)N2CCOCC2)cc1C(=O)NCC1CCCO1 (stereo unspecified) | inactive
CCC(C)NC(=O)c1ccccc1NC(=O)c1ccc(CSc2ccccc2)cc1 (stereo unspecified) | inconclusive [inhibitor, single point]

Structure (SMILES) | Potency
Cc1ccsc1/C=N/NC(=O)c1nnn(-c2nonc2N)c1C(C)C | active: 17.8 µM
O=C(NC1CCCCC1)c1cc([N+](=O)[O-])[nH]n1 | inconclusive [inhibitor, single point]
O=C(N/N=C\c1ccc(-c2ccccc2[N+](=O)[O-])o1)C1COc2ccccc2O1 (stereo unspecified) | inconclusive [inhibitor, single point]
Cn1cnnc1SCc1ccc(C(=O)N=Nc2c(O)n(C)c3ccccc23)cc1 | inactive
CCC1=NN(C(=O)Cc2ccc([N+](=O)[O-])cc2)C(O)(c2ccc(Br)cc2)C1 (stereo unspecified) | inconclusive [inhibitor, single point]
COc1ccc2[nH]c(O)c(N=O)c2c1 | inconclusive [activator, single point]
CC(=O)NN1C(=O)/C(=C\c2ccccc2)SC1=S | inconclusive [inhibitor, single point]
CC(NC(=O)CNC(=S)N(Cc1cccs1)C1CCCC1)c1ccccc1 (stereo unspecified) | inconclusive [inhibitor, single point]
c1ccc2c(NCCCN3CCOCC3)c3ccccc3nc2c1 | inconclusive [inhibitor, single point]
Cn1nc(C(F)(F)F)c(C(=O)Nc2cccc(C(F)(F)F)c2)c1SCc1ccc(Cl)cc1 | inconclusive [inhibitor, single point]
O=C(CSc1ccc2ccccc2c1)Nc1nc2ccccc2[nH]1 | inconclusive [inhibitor, single point]
Cc1cc([N+](=O)[O-])nn1CC(=O)NNC(=S)Nc1ccc([N+](=O)[O-])cc1 | inactive
CN(CC(=O)O)S(=O)(=O)c1ccc2c(c1)n(C)c(=O)c(=O)n2C | inactive
Clc1ccc(CCNc2ncnc3nc[nH]c23)cc1 | active: 11.2 µM
COc1ccccc1NC(=S)N(Cc1ccccc1)Cc1cccnc1 | inactive
O=C(Nc1ccc(-c2nc3ccc(NC(=O)c4cccs4)cc3[nH]2)cc1)c1cccs1 | inconclusive [inhibitor, single point]
N#Cc1cccc(NC(=O)N2CC[C@@]3(CCCNC3)C2)c1 | inactive
N/C(=N\OC(=O)Cc1ccccc1)c1ccccc1Cl | inconclusive [inhibitor, single point]
CC(C)c1nnc(NC(=O)c2sc3ccccc3c2Cl)s1 | inconclusive [inhibitor, single point]
CCc1noc(C)c1C(=O)Nc1nnc(C2CCCCC2)s1 | inconclusive [inhibitor, single point]
O=C(Nc1ccc(NC(=O)c2ccco2)nc1)c1cccnc1 | inconclusive [inhibitor, single point]
COc1ccccc1NC(=O)CN1CCN(CC(=O)Nc2ccc(OCc3ccccc3)cc2)CC1 | inconclusive [inhibitor, single point]
CCOC(=O)C(=O)C1=C(N2CCOCC2)/C(=C\c2cccc([N+](=O)[O-])c2)CC1 | inconclusive [inhibitor, single point]
COc1cc([N+](=O)[O-])cc(/C=C2/SC(=S)N(Cc3ccccc3)C2=O)c1O | active: 5.01 µM

Structure (SMILES) | Potency
CS(=O)(=O)N1N=C(c2ccccc2)CC1c1ccc2c(c1)OCO2 (stereo unspecified) | inconclusive [activator, single point]
O=C(NCC1CCCO1)c1cccc(C(=O)NCC2CCCO2)c1 (stereo unspecified) | inactive
N#Cc1c(NC(=O)C2CC(c3c(F)cccc3Cl)=NO2)sc2c1CCC2 (stereo unspecified) | inconclusive [activator, partial curve]
COc1ccc(N(Cc2ccccc2)C(=O)c2ccccc2[N+](=O)[O-])cc1 | inactive
O=C(NC(=S)N1CCc2ccccc21)C1CCC1 | inconclusive [inhibitor, single point]
CCc1c2c(nc3ccc4c(c13)OCCO4)-c1nc3ccccc3c(=O)n1C2 | active: 12.6 µM
O=C1c2ccccc2C(=O)N1c1ccc(Cc2ccncc2)cc1 | inconclusive [inhibitor, partial curve, poor fit]
CCOc1ncccc1C(=O)OCC(=O)c1cccs1 | inactive
CCOC(=O)C1CCCN(C(=O)CN2C(=O)C(CC)Oc3ccc(C)cc32)C1 (stereo unspecified) | inactive
O=C(c1cccc(Br)c1)c1conc1C(=O)c1ccco1 | inconclusive [inhibitor, partial curve]
COCCNC(=O)C(c1ccccc1)N(CCOC)C(=O)Cn1nnc2ccccc21 (stereo unspecified) | inactive
COc1cccc2oc3ccc(C#CC4(N)CCCCC4)cc3c(=O)c12 | inconclusive [inhibitor, single point]
COc1ccccc1C(=O)NCc1ccccn1 | inactive
Cn1c(=O)n(C)c2cc(NS(=O)(=O)c3ccc4c(c3)CCCC4)ccc21 | inconclusive [inhibitor, single point]
O=C(c1cc(C2CC2)on1)N1CCCC(N2CCN(c3ccc(F)cc3)CC2)C1 (stereo unspecified) | inconclusive [inhibitor, single point]
CCCc1nn(C)c(C(=O)Nc2ccccc2)c1Cl | inconclusive [activator, single point]
O=C(Nc1ccc2c(c1)CCC2)Nc1ccccc1F | inconclusive [inhibitor, single point]
CC(=O)c1cccc(NS(=O)(=O)c2c(C)n[nH]c2C)c1 | inactive
Cc1ccc(N(CC(=O)NCCc2ccc(F)cc2)S(=O)(=O)c2ccc(Cl)c([N+](=O)[O-])c2)c(C)c1 | inconclusive [inhibitor, single point]
CCC[N+](CC#Cc1ccccc1)(CCC)CC(=O)OCC | inconclusive [activator, single point]
O=C(/C=C/c1ccco1)Nc1scc(-c2ccccc2)c1C(=O)O | inconclusive [inhibitor, single point]
CC(C)CNS(=O)(=O)c1ccc(OCC(=O)Nc2ccc(F)cc2F)cc1 | inconclusive [inhibitor, single point]
O=C(CSc1nc2ncccc2[nH]1)c1cccc([N+](=O)[O-])c1 | inconclusive [inhibitor, single point]
